In all, about 33,000 sequences were measured (“E-score (-0.5 to 0.5)”: median about -0.053, highest 2% from about 0.37 on). The list shows a part of the results.
These sequences were tested against Hap1 (UniProt P0CE41) (assay: PBM E-score (8-mer binding enrichment) (E-score (-0.5 to 0.5)); higher = stronger / more preferred TF binding; most listed sequences are background and not binding sites). Details: protein concentration: 200 nM; construct: GST-DNA-binding domain.
Description: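 Universal 'all 10-mer' protein binding microarrays (Agilent AMADID 015681) probed with GST-tagged S. cerevisiae TFs (full-length or DBD) made by in vitro transcription/translation (PURExpress), about 100-200 nM. Bound TF was detected with fluorescent anti-GST. Each ungapped 8-mer (which stands for itself and its reverse complement) is scored by the PBM enrichment score (E-score), a modified Wilcoxon-Mann-Whitney statistic from -0.5 to +0.5, computed with the Universal PBM Analysis Suite. Scale: above 0.35 generally sequence-specific binding.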

Sequence of UniProt P0CE41 (P0CE41 whole entry, the tested form may be a part): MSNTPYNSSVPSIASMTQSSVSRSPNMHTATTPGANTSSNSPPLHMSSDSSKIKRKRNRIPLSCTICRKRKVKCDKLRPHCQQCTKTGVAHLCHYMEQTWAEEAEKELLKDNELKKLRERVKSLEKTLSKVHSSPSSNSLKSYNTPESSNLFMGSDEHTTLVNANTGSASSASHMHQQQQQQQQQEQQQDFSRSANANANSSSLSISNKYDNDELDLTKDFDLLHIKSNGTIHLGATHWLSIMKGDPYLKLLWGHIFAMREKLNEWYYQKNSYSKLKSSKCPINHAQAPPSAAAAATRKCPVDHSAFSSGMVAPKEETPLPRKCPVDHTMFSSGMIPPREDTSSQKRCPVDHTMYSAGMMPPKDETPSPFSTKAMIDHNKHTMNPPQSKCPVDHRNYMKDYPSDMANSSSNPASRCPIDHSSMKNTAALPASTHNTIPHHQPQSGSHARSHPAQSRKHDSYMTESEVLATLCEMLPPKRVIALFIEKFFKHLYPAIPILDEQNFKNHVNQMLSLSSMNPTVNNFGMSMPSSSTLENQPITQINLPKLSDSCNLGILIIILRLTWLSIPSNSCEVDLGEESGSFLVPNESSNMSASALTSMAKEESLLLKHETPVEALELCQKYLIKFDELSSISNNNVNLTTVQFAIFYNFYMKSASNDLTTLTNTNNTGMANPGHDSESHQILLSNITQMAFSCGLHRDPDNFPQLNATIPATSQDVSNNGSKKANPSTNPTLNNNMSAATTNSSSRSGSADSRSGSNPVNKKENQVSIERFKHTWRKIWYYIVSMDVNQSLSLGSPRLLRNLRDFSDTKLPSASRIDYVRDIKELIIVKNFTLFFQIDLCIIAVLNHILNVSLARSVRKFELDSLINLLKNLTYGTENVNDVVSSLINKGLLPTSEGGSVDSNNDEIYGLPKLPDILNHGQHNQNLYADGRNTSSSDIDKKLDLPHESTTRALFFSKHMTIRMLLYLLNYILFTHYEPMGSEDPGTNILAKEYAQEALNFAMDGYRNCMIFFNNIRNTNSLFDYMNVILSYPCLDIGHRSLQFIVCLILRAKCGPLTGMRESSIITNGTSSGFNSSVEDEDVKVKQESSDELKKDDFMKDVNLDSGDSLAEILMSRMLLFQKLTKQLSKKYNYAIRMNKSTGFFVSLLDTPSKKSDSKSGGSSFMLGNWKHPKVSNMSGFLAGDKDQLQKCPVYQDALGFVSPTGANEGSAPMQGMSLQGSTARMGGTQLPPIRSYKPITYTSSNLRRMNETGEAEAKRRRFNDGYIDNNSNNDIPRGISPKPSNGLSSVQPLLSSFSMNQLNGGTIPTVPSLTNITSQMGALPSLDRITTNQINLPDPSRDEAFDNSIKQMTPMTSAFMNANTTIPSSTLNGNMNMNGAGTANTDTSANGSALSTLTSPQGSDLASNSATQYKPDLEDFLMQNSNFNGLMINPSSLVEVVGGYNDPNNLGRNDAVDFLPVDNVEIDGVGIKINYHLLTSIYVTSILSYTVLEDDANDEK

Sequence	PBM E-score
AGGATACG	-0.196
CTTCAAAC	-0.0498
AGCTAGTA	-0.0487
GCGATGAA	0.0119
AGTATTTA	-0.0413
AGCTAGCT	-0.336
AACACGGT	-0.00323
GAGGAGGC	-0.162
ATGGTAGA	-0.241
CTGAAACA	-0.131
CTTAAACC	2e-05
GACAATCA	-0.0325
CGAGTAAG	0.201
CACGTGGC	-0.28
CCTGTTTA	-0.111
GGACCACC	0.0244
GGCCCACA	-0.01
CGATGAAC	0.169
ACAAGTGG	-0.361
CCTCGCGA	-0.042
AGGCGGTC	-0.0534
ACATGCAA	-0.169
ATCCGTAC	0.147
ATAAATTC	0.0886
AACAAGGT	-0.208

Sequence	PBM E-score
AAGTCTAC	-0.151
CCGCACTC	0.119
CTGGTCAC	-0.325
CGCATATC	0.206
CAGGCTAC	-0.104
GCCCCAGA	-0.0764
CATGATCG	0.0268
CCACACCC	0.0324
TACTCCCA	-0.143
CGGCTAGA	0.182
ACCGGACA	0.411
CAAAGCCC	0.164
AGGAGTTG	-0.0647
ACGTGGAC	-0.0326
AAGCATAT	-0.0158
AACCTTCA	-0.258
AGCCTACC	0.00118
CGTGTCGA	-0.187
GCAATAAA	0.187
AATATACG	-0.0398
CATAACTC	0.128
CAGGCAAC	-0.238
CACGTATG	-0.111
CGGAATCA	0.328
GGCCTTCA	-0.0156

Sequence	PBM E-score
AAATGGAG	-0.0137
CGTACCGC	0.0872
ACACGGGA	0.116
CAATTTGG	-0.257
AACCGACA	0.129
GCTTGTCA	-0.00494
CTCCCACA	-0.0245
AACACTTC	-0.118
ACCACCCT	-0.13
CTATGGGC	-0.0743
ATCGGCAC	0.315
CCCCGCGC	0.0744
GCCCGGGA	0.316
ACGGGAGG	0.0415
CAACGAAA	-0.058
GTTAATCA	-0.0449
ATTAGGAC	-0.146
TCTTACAA	-0.186
CCAAGTTC	0.105
GTGTTCCA	-0.0624
CGGCCCTA	0.318
GTAAACTA	-0.08
GCCGCTCA	0.0121
GCACCAGC	-0.0483
ATCCAGAC	0.099

Sequence	PBM E-score
GCACCAAA	-0.136
CTTAGTAC	-0.0465
AGAGGTGA	-0.23
AGTTAATC	-0.0235
AGTCAACG	-0.207
ATGGAACG	-0.0709
GAAAACAC	0.193
AGTTGCGG	0.153
ACGCCCTA	0.0779
AGCCGTGA	0.0986
ACAGTTAA	-0.128
ATAATGTG	-0.188
CGTATAAG	0.09
ATCTGACG	-0.281
ACGACAGC	-0.166
AATAGATT	0.0018
CACCCTAG	-0.133
CGATTAAG	-0.0493
AATGTGGC	-0.1
AAGATACT	0.0899
ACCCTCAG	-0.197
GCGAGCGA	0.0699
ATCGCATG	0.0714
CATTATGC	0.0638
GGGACACA	-0.0551

Sequence	PBM E-score
CCCATATA	-0.128
AGTGAAAC	-0.162
CCCATCCG	0.21
CATATGAC	-0.131
ATATTCTC	-0.0331
GAGTTACA	0.0965
GCACTTCA	-0.0709
CATATAAA	-0.201
TCTGAAAA	-0.00301
ATGCAAAA	-0.124
GAGCCACC	-0.127
CATCACCG	0.212
CGGATCTC	0.279
CCTCGAAC	-0.2
CTCTCGGA	0.4
GACGCAAC	0.0888
AAGTCCAT	-0.00211
ACAAGGTC	-0.251
ATCCATCC	0.273
GTAAGCCA	-0.354
CATCATGC	-0.317
AAGCGGAA	0.211
ATTTCTTG	0.0278
AACCCAAT	-0.185
CAACCCAC	-0.131

Sequence	PBM E-score
CCCTGTAC	-0.167
AATGGACA	-0.242
GCGGAGAA	0.349
TGTTATAA	0.00991
ATTCACGG	0.152
AGCTAGTG	-0.146
GTTAAGAA	0.0147
CCTCGTGA	-0.165
CGGTGAGC	0.0638
ATAGTGTC	-0.0299
CGCAAGTA	0.0146
AACCGAAC	0.165
CCGCTCGA	0.112
CCTGTCTA	-0.161
AGTTCACG	0.0527
CCTGGCGC	0.128
CCGACAAA	0.304
CCGAGAAG	0.293
CAACTCCC	0.0886
CGCTTCGC	0.16
AAGTTCAC	0.0265
ACGTCCCG	0.093
GATAGGCC	0.178
GATTACCC	0.166
CAAAATCG	-0.0102

Sequence	PBM E-score
GACCCGAA	0.301
CCTAAGGC	-0.131
CAATCATG	-0.274
ACCATGCA	-0.132
GATTCGCA	0.132
CAATCATC	0.00362
GCGAGACA	-0.199
AGTTCTGG	-0.189
ACCGCCAT	-0.0161
CTTCGCCA	0.015
AAGCCCAC	-0.123
GTACTGAA	-0.0794
ACAATGGC	-0.082
CTGGCCGA	0.25
CTGGCAGC	-0.103
AGCATTTA	-0.0725
ACGCGTCC	0.0749
AGACTTGC	-0.225
CGGATCCC	0.28
AGAAAGGG	-0.14
GGCTAATA	0.0843
CAAGCGCG	0.0608
